# Data reported in PMC4336329 (PLoS ONE, 2015).
# In all, about 310,000 compounds went through this assay and about 2,200 (0.71%) showed an effect of 50% or more. The effect is printed as a negative number. This is one part of the list.
# Target: human ether-à-go-go-related gene (hERG) potassium channel (human, UniProt Q12809)
# Assay: primary screen, population patch clamp on CHO cells stably expressing hERG
# Chain of human ether-à-go-go-related gene (hERG) potassium channel (Q12809 whole entry, looked up): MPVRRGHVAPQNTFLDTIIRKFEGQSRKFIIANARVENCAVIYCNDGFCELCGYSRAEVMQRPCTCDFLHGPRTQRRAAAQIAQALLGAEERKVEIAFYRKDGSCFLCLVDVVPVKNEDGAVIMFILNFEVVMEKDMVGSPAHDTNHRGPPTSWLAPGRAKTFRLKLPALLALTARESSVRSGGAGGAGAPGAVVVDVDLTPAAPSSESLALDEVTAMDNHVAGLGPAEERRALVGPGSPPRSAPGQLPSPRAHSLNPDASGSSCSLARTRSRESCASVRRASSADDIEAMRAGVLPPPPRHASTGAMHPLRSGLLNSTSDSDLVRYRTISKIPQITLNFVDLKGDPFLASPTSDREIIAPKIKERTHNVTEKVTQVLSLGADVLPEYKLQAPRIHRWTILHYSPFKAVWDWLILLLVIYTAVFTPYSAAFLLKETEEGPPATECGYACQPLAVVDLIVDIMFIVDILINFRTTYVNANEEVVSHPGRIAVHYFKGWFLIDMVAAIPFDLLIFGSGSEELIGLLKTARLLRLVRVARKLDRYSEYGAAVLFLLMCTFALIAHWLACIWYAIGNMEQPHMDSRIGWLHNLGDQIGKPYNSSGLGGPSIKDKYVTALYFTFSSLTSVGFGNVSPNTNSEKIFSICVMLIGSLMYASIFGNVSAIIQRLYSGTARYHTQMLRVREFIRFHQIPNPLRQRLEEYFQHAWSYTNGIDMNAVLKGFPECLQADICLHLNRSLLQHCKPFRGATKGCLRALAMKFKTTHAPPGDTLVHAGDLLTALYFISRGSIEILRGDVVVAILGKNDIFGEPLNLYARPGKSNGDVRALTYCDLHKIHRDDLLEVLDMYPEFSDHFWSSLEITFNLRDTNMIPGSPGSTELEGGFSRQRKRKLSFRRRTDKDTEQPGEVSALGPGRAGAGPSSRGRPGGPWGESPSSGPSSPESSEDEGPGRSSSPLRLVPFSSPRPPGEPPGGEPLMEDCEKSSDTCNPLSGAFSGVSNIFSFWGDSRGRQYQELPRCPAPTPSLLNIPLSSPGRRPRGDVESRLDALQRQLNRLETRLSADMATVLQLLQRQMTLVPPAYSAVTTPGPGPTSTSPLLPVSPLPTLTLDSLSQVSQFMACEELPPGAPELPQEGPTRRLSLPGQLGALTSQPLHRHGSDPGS
row,Compound,"hERG current change (%, negative = inhibition) at 1uM [%]"
1,CC(=O)NCCC(=O)N1CCc2c([nH]c3ccccc23)C1c1cccc(C)c1 (centres unmarked),7.12
2,O=c1[nH]c(=O)n(-c2ccccc2)c(O)c1C=NC12CN3CN(CN(C3)C1)C2,12.3
3,O=C(O)C1C2C=CC(C2)C1C(=O)NCc1ccccc1 (centres unmarked),6.75
4,Cc1cc(Oc2cc(N)cc([N+](=O)[O-])c2)ccc1Cl,6.54
5,CC(C)C(=O)Nc1ncc(Cc2cccc(Cl)c2)s1,8.51
6,CCOC(=O)C1CCCN(C(=O)COC(=O)c2ccc(C#N)cc2)C1 (centres unmarked),11.3
7,COc1ccccc1N(C)S(=O)(=O)c1ccc(Cl)c(C(=O)NCC2(N(C)C)CCCCC2)c1,-6.59
8,COc1ccc(Cl)cc1NC(=O)CN(C)C(=O)Cc1ccc2c(c1)CCC2,10.8
9,O=C(NCCCN1CCOCC1)C1CCCN(S(=O)(=O)N2CCCCC2)C1 (centres unmarked),47.8
10,CC(=O)Nc1cccc(NC(=O)CCCC2CCCCC2)c1,13.3
11,CCCCn1c(-c2cccs2)nc2nc3ccccc3nc21,1.91
12,Cc1ccc(C)c(CN2C(=O)C(C)Oc3ccc(C)cc32)c1 (centres unmarked),6.4
13,O=C1CCCN1CCCn1cnc2c([nH]c3ccc(F)cc32)c1=O,-4.32
14,Cc1nn(CCCC(=O)NCc2ccccc2)c(=O)c2nn(-c3ccccc3)c(C)c12,9.77
15,O=C1Nc2cc(Cl)cnc2N2CCCC12 (centres unmarked),5.76
16,O=C(CSc1nc2ccccc2s1)Nc1ccc(Cl)c(C(=O)O)c1,17.6
17,CCOC(=O)[C@@H]1[C@H]2COc3ccccc3[C@@H]2N2C(=O)N(c3ccc(F)cc3)C(=O)[C@]12C,8.73
18,CC(=O)c1c(C)[nH]c(C(=O)COc2cc(C)cc(C)c2)c1C,9.98
19,COCCNCC(=O)N1c2ccccc2Sc2ccccc21,12.9
20,Cc1nn(Cc2ccccc2)c(Cl)c1/C=C/C(=O)OCC(=O)NC(C)C(C)C (centres unmarked),14.8
21,CCOC(=O)c1nn(-c2ccccc2)c2nnc(Cc3ccc(C)cc3)c(=O)n12,22
22,CN(C)S(=O)(=O)c1cccc(NC(=O)c2ccc(S(=O)(=O)N3CCCCC3)cc2)c1,17.2

row,Compound,"hERG current change (%, negative = inhibition) at 1uM [%]"
1,CC(=O)N1c2ccc(S(=O)(=O)N3CCC(C(=O)NCCc4ccc(Cl)cc4)CC3)cc2CC1C (centres unmarked),8.92
2,Cc1cc(C(F)(F)F)nn1CCCNC(=O)c1cnccn1,-11.6
3,O=C(CN1CCN(S(=O)(=O)c2ccc(Cl)s2)CC1)N1CCOCC1,17
4,CCN(CC(=O)Nc1ccc(Cl)c(S(=O)(=O)N(C)C)c1)CC(=O)NC(C)C,10.8
5,Cc1ccc(S(=O)(=O)Nc2ccc3c(c2)nc2n3CCN(Cc3ccccc3)C2)cc1,-0.623
6,COC(=O)c1cc(-c2c(C)oc3cc(O)ccc3c2=O)c(C)o1,-1.42
7,O=C(Cn1c(-c2ccccc2)c[n+]2ccsc12)c1ccc([N+](=O)[O-])cc1.[Br-],-9.66
8,COc1ccc(S(=O)(=O)N2CCOC23CCN(S(=O)(=O)c2ccc(C)cc2)CC3)cc1,12.8
9,C[C@@H]1NC(=O)N(c2ccc(F)cc2)C1=O,5.66
10,CCOCCCNC(=O)c1cc(C)nn1-c1ccccc1,14.2
11,Nc1nnc(SCC(=O)OCC(=O)Nc2ccccc2)s1,6.12
12,O=C(c1ccccc1C(=O)N1CCN(c2ccccc2F)CC1)N1CCN(c2ccccc2F)CC1,12.8
13,Cn1cc(SCC(=O)Nc2ccc3c(c2)OCCO3)c2ccccc21,1.96
14,Cc1ccc(CN2CC3CC(C2)c2cccc(=O)n2C3)cc1 (centres unmarked),10.5
15,O=C(CCN1CCCCO1)N1CCCC(Nc2cccc(F)c2)C1 (centres unmarked),11.2
16,Cc1ccccc1OCC(=O)NNC(=S)NC(=O)c1ccco1,8.12
17,Cc1cccc(NC(=S)NC2CC3CCCC(C2)N3CC(C)C)c1 (centres unmarked),-13.6
18,Cc1ccc(C(=O)Nc2ccc(C(F)(F)F)n(C)c2=O)cc1,9.37
19,CSc1nc(Sc2ccc(Cl)cc2)c2ccccc2n1,17.6
20,CC(=O)N1c2ccc(S(=O)(=O)NCCC(=O)N(C)Cc3ccccc3)cc2CC1C (centres unmarked),18.8
21,Cc1ccc(S(N)(=O)=O)cc1NC(=O)/C=C/c1cccs1,0.562
22,Cc1cccc(-c2noc(CN(C(=O)c3ccc(Br)o3)C(C)C)n2)c1,12.3
